Measured values: the supplement of paper PMC4967469
The IC50 comes from the fitted curve, where viability falls to half of the control; a limit (>, <) means that the fit lies beyond the doses tested. For AUC the same curve is integrated over the 256-fold range of doses and scaled to a fraction: 1 means no effect, lower means more sensitive. Any top dose called inferred was derived from the fitted curves, not read from the paper.

Compound: CCCCCCCCCCCC1=C(O)C(=O)C=C(O)C1=O [Embelin]
Assay: Viability of human cancer cell lines after 72 h of drug (GDSC screen)
Settings: top dose 32 µM; top dose inferred
Experimental: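 Human cancer cell lines in 384-well plates, medium with 10% serum, drug for 72 h over a 256-fold dose range (nine 2-fold or five 4-fold steps up to the top dose). Adherent lines were fixed and stained with the nucleic acid dye Syto60, suspension lines read with resazurin; signal relative to control wells, capped at 0 and 100%. One two-parameter sigmoid per drug and line, fitted in a mixed model over all curves with the slope shared within a line.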

Cell Line | AUC | IC50 [µM]
RO82-W-1 (thyroid, adherent) | 0.886 | > 32
ROS-50 (B-cell leukaemia, suspension) | 0.952 | > 32
RPMI-2650 (head and neck, adherent) | 0.708 | 8.16
RPMI-6666 (Hodgkin lymphoma, suspension) | 0.725 | 10
RPMI-7951 (melanoma, adherent) | 0.861 | –
RPMI-8226 (myeloma, suspension) | 0.802 | 13.4
RPMI-8402 (T-cell lymphoblastic leukaemia, suspension) | 0.626 | 4.19
RPMI-8866 (chronic myeloid leukaemia, suspension) | 0.747 | 9.61
RS4-11 (leukaemia, suspension) | 0.771 | 11.2
RT4 (bladder, adherent) | 0.931 | > 32
RT-112 (bladder, adherent) | 0.735 | 9.95
RVH-421 (melanoma, adherent) | 0.732 | 11.9
RXF393 (kidney, adherent) | 0.859 | > 32
Raji (Burkitt lymphoma, suspension) | 0.741 | 9.25
Ramos-2G6-4C10 (Burkitt lymphoma, suspension) | 0.831 | 16.4
SAS (head and neck, adherent) | 0.82 | 21.1
SAT (head and neck, adherent) | 0.821 | > 32
SBC-1 (small cell lung carcinoma, suspension) | 0.895 | > 32
SBC-3 (small cell lung carcinoma, adherent) | 0.711 | 7.39
SBC-5 (small cell lung carcinoma, adherent) | 0.859 | 19
SCC90 (head and neck, adherent) | 0.836 | > 32

Cell Line | AUC | IC50 [µM]
SCC-3 (B-cell lymphoma, suspension) | 0.889 | 19.1
SCC-4 (head and neck, adherent) | 0.793 | 17.7
SCC-9 (head and neck, adherent) | 0.862 | > 32
SCC-15 (head and neck, adherent) | 0.691 | 8.37
SCC-25 (head and neck, adherent) | 0.869 | > 32
SCH (stomach, adherent) | 0.837 | 23.9
SF126 (glioma, adherent) | 0.761 | 12
SF268 (glioma, adherent) | 0.693 | 7.29
SF295 (glioma, adherent) | 0.594 | 3.71
SF539 (glioma, adherent) | 0.815 | 15.3
SH-4 (melanoma, adherent) | 0.754 | 16.8
SHP-77 (small cell lung carcinoma, semi-adherent) | 0.938 | > 32
SIG-M5 (acute myeloid leukaemia, suspension) | 0.432 | 1.37
SIMA (neuroblastoma, adherent) | 0.683 | 7.02
SISO (cervix, adherent) | 0.769 | 11.6
SJRH30 (rhabdomyosarcoma, adherent) | 0.728 | 9.13
SJSA-1 (bone, adherent) | 0.629 | 4.76
SK-CO-1 (large intestine, adherent) | 0.811 | 15.8
SK-ES-1 (Ewing sarcoma, semi-adherent) | 0.749 | 11
SK-HEP-1 (liver, adherent) | 0.771 | 11.5
SK-LMS-1 (soft tissue, adherent) | 0.681 | 6.22

Cell Line | AUC | IC50 [µM]
SK-LU-1 (lung adenocarcinoma, adherent) | 0.705 | 8.94
SK-MEL-1 (melanoma, suspension) | 0.938 | > 32
SK-MEL-2 (melanoma, adherent) | 0.786 | 14.3
SK-MEL-3 (melanoma, adherent) | 0.808 | 19.8
SK-MEL-24 (melanoma, adherent) | 0.609 | 4.24
SK-MEL-28 (melanoma, adherent) | 0.675 | 6.09
SK-MEL-30 (melanoma, adherent) | 0.773 | 13.2
SK-MES-1 (lung squamous cell carcinoma, adherent) | 0.649 | 5.39
SK-MM-2 (myeloma, suspension) | 0.938 | > 32
SK-N-AS (neuroblastoma, adherent) | 0.795 | 17.6
SK-N-DZ (neuroblastoma, adherent) | 0.843 | 22.2
SK-N-FI (neuroblastoma, adherent) | 0.972 | > 32
SK-N-SH (neuroblastoma, adherent) | 0.612 | 4.05
SK-OV-3 (ovary, adherent) | 0.729 | –
SK-PN-DW (Ewing sarcoma, adherent) | 0.889 | > 32
SK-UT-1 (soft tissue, adherent) | 0.656 | 5.19
SKG-IIIa (cervix, adherent) | 0.883 | > 32
SKN (uterus, adherent) | 0.777 | 15.8
SKN-3 (head and neck, adherent) | 0.846 | 29.9
SLVL (B-cell lymphoma, suspension) | 0.745 | 10.6
SN12C (kidney, adherent) | 0.857 | 31.2

Cell Line | AUC | IC50 [µM]
SNB75 (glioma, adherent) | 0.807 | 26.7
SNG-M (endometrium, adherent) | 0.627 | 4.44
SNU-182 (liver, adherent) | 0.681 | 6.59
SNU-387 (liver, adherent) | 0.861 | > 32
SNU-398 (liver, adherent) | 0.722 | 8.78
SNU-423 (liver, adherent) | 0.772 | 14.4
SNU-449 (liver, adherent) | 0.822 | 21
SNU-475 (liver, adherent) | 0.965 | > 32
SNU-C1 (large intestine, suspension) | 0.772 | 18.7
SNU-C2B (large intestine, adherent) | 0.916 | > 32
SR (lymphoid neoplasm, suspension) | 0.854 | 21.3
ST486 (Burkitt lymphoma, suspension) | 0.74 | 8.83
STS-0421 (soft tissue, adherent) | 0.922 | > 32
SU8686 (pancreas, adherent) | 0.826 | 22.7
SU-DHL-1 (anaplastic large cell lymphoma, suspension) | 0.963 | > 32
SU-DHL-4 (B-cell lymphoma, suspension) | 0.711 | 6.47
SU-DHL-5 (B-cell lymphoma, suspension) | 0.522 | 2.27
SU-DHL-6 (B-cell lymphoma, suspension) | 0.928 | 28.6
